{
  "source": "ChEMBL document CHEMBL1154674",
  "about": "“Synthesis and evaluation of three 18F-labeled aminophenylbenzothiazoles as amyloid imaging agents” (J Med Chem, 2009)",
  "assay_type_in_all_cases": "ADME, organism-based, Macaca mulatta",
  "key": {"[1]": {"test": "Drug level in normal rhesus monkey pons assessed as standard uptake value at 96.3 MBq, iv after 37.5 mins by microPET", "conditions": "in vivo, 0.625 h"}, "[2]": {"test": "Drug level in normal rhesus monkey white matter assessed as standard uptake value at 96.3 MBq, iv after 1.5 mins by microPET", "conditions": "in vivo, 0.025 h"}, "[3]": {"test": "Drug level in normal rhesus monkey thalamus assessed as standard uptake value at 96.3 MBq, iv after 57.5 mins by microPET", "conditions": "in vivo"}, "[4]": {"test": "Drug level in normal rhesus monkey frontal cortex assessed as standard uptake value at 96.3 MBq, iv after 165 mins by microPET", "conditions": "in vivo, 2.75 h"}, "[5]": {"test": "Drug level in normal rhesus monkey cerebellum assessed as standard uptake value at 96.3 MBq, iv after 42.5 mins by microPET", "conditions": "in vivo"}, "[6]": {"test": "Drug level in normal rhesus monkey cerebellum assessed as standard uptake value at 96.3 MBq, iv after 115 mins by microPET", "conditions": "in vivo"}, "[7]": {"test": "Drug level in normal rhesus monkey pons assessed as standard uptake value at 96.3 MBq, iv after 14 mins by microPET", "conditions": "in vivo"}, "[8]": {"test": "Drug level in normal rhesus monkey cerebellum assessed as standard uptake value at 96.3 MBq, iv after 175 mins by microPET", "conditions": "in vivo"}, "[9]": {"test": "Drug level in normal rhesus monkey pons assessed as standard uptake value at 96.3 MBq, iv after 165 mins by microPET", "conditions": "in vivo, 2.75 h"}, "[10]": {"test": "Drug level in normal rhesus monkey frontal cortex assessed as standard uptake value at 96.3 MBq, iv after 155 mins by microPET", "conditions": "in vivo"}, "[11]": {"test": "Drug level in normal rhesus monkey parietal cortex assessed as standard uptake value at 96.3 MBq, iv after 3.5 mins by microPET", "conditions": "in vivo"}, "[12]": {"test": "Drug level in normal rhesus monkey cerebellum assessed as standard uptake value at 96.3 MBq, iv after 145 mins by microPET", "conditions": "in vivo"}, "[13]": {"test": "Drug level in normal rhesus monkey parietal cortex assessed as standard uptake value at 96.3 MBq, iv after 4.5 mins by microPET", "conditions": "in vivo, 0.075 h"}, "[14]": {"test": "Drug level in normal rhesus monkey frontal cortex assessed as standard uptake value at 109.4 MBq, iv after 105 mins by microPET", "conditions": "in vivo, 1.75 h"}, "[15]": {"test": "Drug level in normal rhesus monkey cerebellum assessed as standard uptake value at 109.4 MBq, iv after 1.5 mins by microPET", "conditions": "in vivo, 0.025 h"}, "[16]": {"test": "Drug level in normal rhesus monkey white matter assessed as standard uptake value at 109.4 MBq, iv after 6.5 mins by microPET", "conditions": "in vivo"}, "[17]": {"test": "Drug level in normal rhesus monkey pons assessed as standard uptake value at 109.4 MBq, iv after 0.125 mins by microPET", "conditions": "in vivo, 7 s"}, "[18]": {"test": "Drug level in normal rhesus monkey parietal cortex assessed as standard uptake value at 109.4 MBq, iv after 87 mins by microPET", "conditions": "in vivo, 1.45 h"}, "[19]": {"test": "Drug level in normal rhesus monkey cerebellum assessed as standard uptake value at 109.4 MBq, iv after 6.5 mins by microPET", "conditions": "in vivo"}, "[20]": {"test": "Drug level in normal rhesus monkey frontal cortex assessed as standard uptake value at 109.4 MBq, iv after 52.5 mins by microPET", "conditions": "in vivo, 0.875 h"}, "[21]": {"test": "Drug level in normal rhesus monkey cerebellum assessed as standard uptake value at 109.4 MBq, iv after 0.125 mins by microPET", "conditions": "in vivo, 7 s"}, "[22]": {"test": "Drug level in normal rhesus monkey pons assessed as standard uptake value at 109.4 MBq, iv after 4.5 mins by microPET", "conditions": "in vivo, 0.075 h"}, "[23]": {"test": "Drug level in normal rhesus monkey white matter assessed as standard uptake value at 109.4 MBq, iv after 15.5 mins by microPET", "conditions": "in vivo"}, "[24]": {"test": "Drug level in normal rhesus monkey white matter assessed as standard uptake value at 109.4 MBq, iv after 105 mins by microPET", "conditions": "in vivo, 1.75 h"}, "[25]": {"test": "Drug level in normal rhesus monkey thalamus assessed as standard uptake value at 109.4 MBq, iv after 0.625 mins by microPET", "conditions": "in vivo, 38 s"}, "[26]": {"test": "Drug level in normal rhesus monkey frontal cortex assessed as standard uptake value at 109.4 MBq, iv after 111 mins by microPET", "conditions": "in vivo"}, "[27]": {"test": "Drug level in normal rhesus monkey frontal cortex assessed as standard uptake value at 109.4 MBq, iv after 0.375 mins by microPET", "conditions": "in vivo, 22 s"}, "[28]": {"test": "Drug level in normal rhesus monkey white matter assessed as standard uptake value at 109.4 MBq, iv after 0.625 mins by microPET", "conditions": "in vivo, 38 s"}, "[29]": {"test": "Drug level in normal rhesus monkey parietal cortex assessed as standard uptake value at 81.2 MBq, iv after 10 mins by microPET", "conditions": "in vivo"}, "[30]": {"test": "Drug level in normal rhesus monkey pons assessed as standard uptake value at 81.2 MBq, iv after 2.5 mins by microPET", "conditions": "in vivo"}, "[31]": {"test": "Drug level in normal rhesus monkey frontal cortex assessed as standard uptake value at 81.2 MBq, iv after 85 mins by microPET", "conditions": "in vivo"}, "[32]": {"test": "Drug level in normal rhesus monkey pons assessed as standard uptake value at 81.2 MBq, iv after 105 mins by microPET", "conditions": "in vivo, 1.75 h"}, "[33]": {"test": "Drug level in normal rhesus monkey pons assessed as standard uptake value at 81.2 MBq, iv after 135 mins by microPET", "conditions": "in vivo, 2.25 h"}, "[34]": {"test": "Drug level in normal rhesus monkey thalamus assessed as standard uptake value at 81.2 MBq, iv after 165 mins by microPET", "conditions": "in vivo, 2.75 h"}, "[35]": {"test": "Drug level in normal rhesus monkey frontal cortex assessed as standard uptake value at 81.2 MBq, iv after 37.5 mins by microPET", "conditions": "in vivo, 0.625 h"}, "[36]": {"test": "Drug level in normal rhesus monkey thalamus assessed as standard uptake value at 81.2 MBq, iv after 85 mins by microPET", "conditions": "in vivo"}, "[37]": {"test": "Drug level in normal rhesus monkey frontal cortex assessed as standard uptake value at 81.2 MBq, iv after 4.5 mins by microPET", "conditions": "in vivo, 0.075 h"}, "[38]": {"test": "Drug level in normal rhesus monkey thalamus assessed as standard uptake value at 81.2 MBq, iv after 22.5 mins by microPET", "conditions": "in vivo, 0.375 h"}, "[39]": {"test": "Drug level in normal rhesus monkey cerebellum assessed as standard uptake value at 81.2 MBq, iv after 3.5 mins by microPET", "conditions": "in vivo"}, "[40]": {"test": "Drug level in normal rhesus monkey cerebellum assessed as standard uptake value at 81.2 MBq, iv after 2.5 mins by microPET", "conditions": "in vivo"}, "[41]": {"test": "Drug level in normal rhesus monkey thalamus assessed as standard uptake value at 81.2 MBq, iv after 47.5 mins by microPET", "conditions": "in vivo"}, "[42]": {"test": "Drug level in normal rhesus monkey white matter assessed as standard uptake value at 81.2 MBq, iv after 1.5 mins by microPET", "conditions": "in vivo, 0.025 h"}, "[43]": {"test": "Drug level in normal rhesus monkey frontal cortex assessed as standard uptake value at 81.2 MBq, iv after 47.5 mins by microPET", "conditions": "in vivo"}, "[44]": {"test": "Drug level in normal rhesus monkey parietal cortex assessed as standard uptake value at 81.2 MBq, iv after 115 mins by microPET", "conditions": "in vivo"}},
  "note": "The source gives many values for each of these; only a part stands here.",
  "data": [
    {"smiles": "CN(C)c1ccc2nc(-c3ccc([18F])cc3)sc2c1", "values": [
      {"measurement": "SUV", "setting": "[1]", "value": 1.75},
      {"measurement": "SUV", "setting": "[2]", "value": 0.79},
      {"measurement": "SUV", "setting": "[3]", "value": 2.25},
      {"measurement": "SUV", "setting": "[4]", "value": 1.45},
      {"measurement": "SUV", "setting": "[5]", "value": 1.35},
      {"measurement": "SUV", "setting": "[6]", "value": 0.95},
      {"measurement": "SUV", "setting": "[7]", "value": 1.52},
      {"measurement": "SUV", "setting": "[8]", "value": 0.77},
      {"measurement": "SUV", "setting": "[9]", "value": 1.91},
      {"measurement": "SUV", "setting": "[10]", "value": 1.52},
      {"measurement": "SUV", "setting": "[11]", "value": 1.99},
      {"measurement": "SUV", "setting": "[12]", "value": 0.93},
      {"measurement": "SUV", "setting": "[13]", "value": 2.1}
    ]},
    {"smiles": "Nc1ccc2nc(-c3ccc([18F])cc3)sc2c1", "values": [
      {"measurement": "SUV", "setting": "[14]", "value": 4.16},
      {"measurement": "SUV", "setting": "[15]", "value": 4.76},
      {"measurement": "SUV", "setting": "[16]", "value": 2.84},
      {"measurement": "SUV", "setting": "[17]", "value": -0.03},
      {"measurement": "SUV", "setting": "[18]", "value": 3.86},
      {"measurement": "SUV", "setting": "[19]", "value": 5.81},
      {"measurement": "SUV", "setting": "[20]", "value": 4.72},
      {"measurement": "SUV", "setting": "[21]", "value": 0.03},
      {"measurement": "SUV", "setting": "[22]", "value": 3.76},
      {"measurement": "SUV", "setting": "[23]", "value": 2.92},
      {"measurement": "SUV", "setting": "[24]", "value": 3.75},
      {"measurement": "SUV", "setting": "[25]", "value": 1.58},
      {"measurement": "SUV", "setting": "[26]", "value": 4.22},
      {"measurement": "SUV", "setting": "[27]", "value": 0.08},
      {"measurement": "SUV", "setting": "[28]", "value": 0.57}
    ]},
    {"smiles": "CNc1ccc2nc(-c3ccc([18F])cc3)sc2c1", "values": [
      {"measurement": "SUV", "setting": "[29]", "value": 5.056},
      {"measurement": "SUV", "setting": "[30]", "value": 4.23},
      {"measurement": "SUV", "setting": "[31]", "value": 4.885},
      {"measurement": "SUV", "setting": "[32]", "value": 5.55},
      {"measurement": "SUV", "setting": "[33]", "value": 5.697},
      {"measurement": "SUV", "setting": "[34]", "value": 4.882},
      {"measurement": "SUV", "setting": "[35]", "value": 5.484},
      {"measurement": "SUV", "setting": "[36]", "value": 5.308},
      {"measurement": "SUV", "setting": "[37]", "value": 5.142},
      {"measurement": "SUV", "setting": "[38]", "value": 5.149},
      {"measurement": "SUV", "setting": "[39]", "value": 3.197},
      {"measurement": "SUV", "setting": "[40]", "value": 2.019},
      {"measurement": "SUV", "setting": "[41]", "value": 5.274},
      {"measurement": "SUV", "setting": "[42]", "value": 1.942},
      {"measurement": "SUV", "setting": "[43]", "value": 5.463},
      {"measurement": "SUV", "setting": "[44]", "value": 2.684}
    ]}
  ]
}
